According to PubChem BioAssay AID588795 (National Center for Advancing Translational Sciences (NCATS), 2011):
The campaign covered roughly 390,000 compounds. About 1,400 (0.36%) were called active. The inconclusive results got no clear call from the source; some entries with a clear call stand among them for comparison. The call rests on the fitted dose curve; in most records, active means well fitted inhibition curve with a large enough effect; inconclusive means small, poorly fitted or top-dose-only effect; inactive means no such curve, though single readings can be large or run the other way. A potency beside an inconclusive call is a rough fit, not a confirmed value.

target: Flap endonuclease 1 (Homo sapiens) (UniProt P39748); experiment: qHTS Assay for the Inhibitors of Human Flap endonuclease 1 (FEN1).; further: nearly all actives have a fitted effect of over 65% in size; conditions: Recombinant FEN1 flap cleavage, fluorescence, 15 min; series mostly up to 114 µM
Method in brief: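 Compounds are tested as a concentration series against 10 nM FEN1; after a 15 min room-temperature preincubation, 50 nM substrate starts cleavage, with plate reads at 0 and 15 min. Normalized responses are fitted by a Hill equation.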
Potency means the concentration at half of the fitted maximal effect; tags describe the fitted curve by direction and shape.

Chain of UniProt P39748 (P39748 whole entry, looked up): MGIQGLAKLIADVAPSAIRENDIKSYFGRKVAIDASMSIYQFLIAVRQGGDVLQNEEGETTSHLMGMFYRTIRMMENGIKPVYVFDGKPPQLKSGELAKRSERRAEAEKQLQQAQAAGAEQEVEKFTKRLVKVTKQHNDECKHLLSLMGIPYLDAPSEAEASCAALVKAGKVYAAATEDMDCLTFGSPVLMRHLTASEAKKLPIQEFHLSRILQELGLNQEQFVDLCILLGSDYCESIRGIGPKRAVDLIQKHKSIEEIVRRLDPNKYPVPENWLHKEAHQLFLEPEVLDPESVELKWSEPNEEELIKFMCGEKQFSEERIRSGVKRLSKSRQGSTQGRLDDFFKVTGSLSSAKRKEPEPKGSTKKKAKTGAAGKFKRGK

**Q.** With COc1cc(C=C2C(=O)c3ccccc3C2=O)cc(OC)c1 as the molecule, how does the Potency read?
**A.** inactive

**Q.** Which Potency does the source give for O=C(NC1CC1)c1ccc(NC(=O)C2CCC2)cc1 here?
**A.** inconclusive: 89.1 µM [inhibitor, single point]

**Q.** How did the Potency turn out when CCOc1ccc(/C=N/NC(=O)c2cc(-c3ccco3)nc3ccccc23)cc1 was run?
**A.** inactive

**Q.** How did the Potency turn out when Cc1cc(C)nc(/N=C(\N)Nc2ccc(S(=O)(=O)Nc3nccc(C)n3)cc2)n1 was run?
**A.** inconclusive: 50.1 µM [inhibitor, partial curve]

**Q.** COc1ccc(OC)c2nc3c(C(=O)NCCN(C)C)cccc3nc12 was tested. Which Potency did it give?
**A.** active: 14.1 µM

**Q.** For Cc1ccc(S(=O)(=O)/N=C/c2c(O)ccc3ccccc23)cc1, which Potency is on record?
**A.** inconclusive: 39.8 µM [inhibitor, single point]

**Q.** How did the Potency turn out when COc1ccc(CN2CCN(C(=O)c3cccc(OC)c3OC)CC2)cc1OC was run?
**A.** inactive

**Q.** How did the Potency turn out when COc1cc(C(=O)N/N=C/c2ccc(OC(=O)c3ccccc3)c(OC)c2)ccc1O was run?
**A.** inactive

**Q.** Which Potency does the source give for COCCCNC(=O)Cn1c(=O)n(Cc2ccc(C(=O)NCc3ccc(C)cc3)cc2)c(=O)c2ccccc21 here?
**A.** inconclusive: 79.4 µM [inhibitor, partial curve, poor fit]

**Q.** With COc1cccc(/C=C/C(=O)Nc2ccc3c(c2)OCCO3)c1 as the molecule, how does the Potency read?
**A.** inconclusive: 89.1 µM [inhibitor, partial curve, poor fit]

**Q.** How did the Potency turn out when O=C(O)c1cc(N2N=C(C(F)(F)F)/C(=C/C=C/c3ccco3)C2=O)ccc1Cl was run?
**A.** active: 3.16 µM

**Q.** Which Potency does the source give for CCCn1c(/N=C/c2c[nH]c3ccccc23)nc2ccccc21 here?
**A.** inconclusive: 89.1 µM [inhibitor, partial curve, poor fit]

**Q.** For COc1cc2nc(N3CCCCC3)nc(NC3CCN(C)CC3)c2cc1OC, which Potency is on record?
**A.** inconclusive: 17.8 µM [inhibitor, partial curve]

**Q.** COc1cc(C(=O)NC2CCN(C)CC2)ccc1Nc1ncc2c(n1)N(C1CCCCC1)CCC(=O)N2C was tested. Which Potency did it give?
**A.** inconclusive: 50.1 µM [inhibitor, partial curve]

**Q.** With Fc1ccc2[nH]c3c(N4CCN(Cc5ccc6c(c5)OCO6)CC4)ncnc3c2c1 as the molecule, how does the Potency read?
**A.** inconclusive: 20 µM [inhibitor, full curve]

**Q.** With Fc1ccc(-c2csc(/C=C/c3ccc4c(c3)OCO4)n2)cc1 as the molecule, how does the Potency read?
**A.** inactive

**Q.** With Cc1cccc(CNc2ncnc3ccc(-c4ccc5c(c4)OCO5)cc23)c1 as the molecule, how does the Potency read?
**A.** inconclusive: 39.8 µM [inhibitor, partial curve, poor fit]

**Q.** COc1ccc(NC(=O)c2ccco2)cc1NC(=O)c1cc(Cl)ccc1OC was tested. Which Potency did it give?
**A.** inactive

**Q.** Cc1ccc(NC(=O)C2CCN(S(=O)(=O)c3ccc4c(c3)NC(=O)C(C)S4)CC2)cc1C (stereo unspecified) was tested. Which Potency did it give?
**A.** inconclusive: 39.8 µM [inhibitor, partial curve, poor fit]

**Q.** CCOC(=O)c1oc2ccccc2c1NC(=O)c1ccccc1OC was tested. Which Potency did it give?
**A.** inconclusive: 70.8 µM [inhibitor, partial curve, poor fit]

**Q.** How did the Potency turn out when CN1CCN(CC(=O)Nc2c(C(=O)c3ccccc3)oc3ccccc23)CC1 was run?
**A.** inconclusive: 56.2 µM [inhibitor, partial curve, poor fit]

**Q.** Cc1c(OCC(N)=O)ccc2c(-c3ccccc3)cc(=O)oc12 was tested. Which Potency did it give?
**A.** inconclusive: 89.1 µM [inhibitor, partial curve, poor fit]

**Q.** Which Potency does the source give for Cc1ccc(-n2c(-c3ccc(Br)cc3)c[n+]3c2CCc2ccc4cccnc4c2-3)cc1 here?
**A.** inconclusive: 39.8 µM [inhibitor, partial curve]

**Q.** For Cc1c(N=C2C=C(Br)C(=O)C(Br)=C2)c(=O)n(-c2ccccc2)n1C, which Potency is on record?
**A.** inconclusive: 56.2 µM [inhibitor, partial curve, poor fit]

**Q.** With CC(Sc1nc(C(C)(C)C)cc(-c2ccccc2)c1C#N)C(=O)Nc1ccccc1 (stereo unspecified) as the molecule, how does the Potency read?
**A.** inactive

**Q.** How did the Potency turn out when O=C(COC(=O)/C=C/c1cn(-c2ccccc2)nc1-c1ccc2c(c1)OCCO2)NC1CCS(=O)(=O)C1 (stereo unspecified) was run?
**A.** inconclusive: 79.4 µM [inhibitor, partial curve, poor fit]

**Q.** How did the Potency turn out when COc1ccc(OC)c(NC(=O)C2CCCN(S(=O)(=O)c3ccc4c(c3)CCCC(=O)N4)C2)c1 (stereo unspecified) was run?
**A.** inactive

**Q.** With O=C(N/N=C/c1cn[nH]c1-c1ccc(Cl)cc1)c1ccc([N+](=O)[O-])cc1 as the molecule, how does the Potency read?
**A.** inconclusive: 17.8 µM [inhibitor, partial curve]

**Q.** For COc1ccc(-c2nnc(SCC(=O)N3CCC(C)CC3)o2)cc1, which Potency is on record?
**A.** inactive

**Q.** Which Potency does the source give for CC1CCN(CC[S-])CC1.O.O.[Cl][Pt] here?
**A.** inconclusive: 89.1 µM [inhibitor, single point]

**Q.** For CCCN(CCC)CCc1cccc2c1CC(=O)N2, which Potency is on record?
**A.** inconclusive: 29.9 µM [inhibitor, partial curve, poor fit]

**Q.** Which Potency does the source give for COCCCNc1nc2ccccc2nc1NS(=O)(=O)c1ccc(C)cc1 here?
**A.** inconclusive: 1.41 µM [inhibitor, partial curve, poor fit]

**Q.** With Clc1ccc(CCNc2nc3cc(Cl)c(Cl)cc3n3cnnc23)cc1 as the molecule, how does the Potency read?
**A.** inactive

**Q.** Which Potency does the source give for Cc1ccc(C)c(NC(c2ccccc2)c2nnc(-c3ccccc3F)o2)c1 (stereo unspecified) here?
**A.** inconclusive: 89.1 µM [inhibitor, single point]

**Q.** For Oc1ccc(/C=N/Nc2nc(-c3ccc(Cl)cc3)cc(C(F)(F)F)n2)cc1, which Potency is on record?
**A.** inconclusive: 56.2 µM [inhibitor, partial curve, poor fit]

**Q.** Which Potency does the source give for Clc1ccc(/C=C/c2ccnc3ccccc23)c(Cl)c1 here?
**A.** inconclusive: 50.1 µM [inhibitor, partial curve]

**Q.** For CC(=O)c1c(Cl)nc2cccc3c2c1-c1ccccc1C3=O, which Potency is on record?
**A.** inconclusive: 89.1 µM [inhibitor, partial curve, poor fit]

**Q.** With COc1cccc(CC(=O)Nc2ccc(S(=O)(=O)N3CCCCC3)cc2)c1 as the molecule, how does the Potency read?
**A.** inconclusive: 79.4 µM [inhibitor, partial curve, poor fit]

**Q.** Which Potency does the source give for CN(CC(=O)Nc1cccc(F)c1)C(=O)c1cn(-c2ccccc2)nc1-c1ccccc1 here?
**A.** inconclusive: 50.1 µM [inhibitor, partial curve, poor fit]

**Q.** Cc1ccc2onc(CC(=O)N3CCN(c4cccc(Cl)c4)CC3)c2c1 was tested. Which Potency did it give?
**A.** inactive

**Q.** For COc1ccc(N2CCN(Cc3nc4c(c(=O)[nH]c(=O)n4C)n3Cc3ccccc3C)CC2)cc1, which Potency is on record?
**A.** inactive

**Q.** For N#CC(C#N)=C(Nc1ccc(F)cc1)SCc1cccc(Br)c1, which Potency is on record?
**A.** inconclusive: 50.1 µM [inhibitor, partial curve, poor fit]

**Q.** For Cc1cc(C(=O)COc2ccc3ccc(=O)oc3c2)c(C)n1Cc1cccs1, which Potency is on record?
**A.** inactive

**Q.** Which Potency does the source give for O=[N+]([O-])c1ccc(S(=O)Cc2ccccc2)c([N+](=O)[O-])c1 (stereo unspecified) here?
**A.** inconclusive: 50.1 µM [inhibitor, partial curve]

**Q.** Which Potency does the source give for O=C(COC(=O)Cc1ccc(S(=O)(=O)N2CCOCC2)s1)NCc1ccccc1 here?
**A.** inactive

**Q.** Which Potency does the source give for CCOc1cc(/C=C(/C#N)c2nc3ccccc3[nH]2)ccc1Oc1ccc([N+](=O)[O-])cn1 here?
**A.** inactive

**Q.** Which Potency does the source give for CC1=NN(c2ccccc2)C(=O)/C1=C\C=C\c1ccccc1 here?
**A.** inconclusive: 79.4 µM [inhibitor, partial curve, poor fit]

**Q.** How did the Potency turn out when O=c1cc(-c2ccc(O)cc2)oc2c(-c3c(O)cc(O)c4c(=O)cc(-c5ccc(O)cc5)oc34)c(O)cc(O)c12 was run?
**A.** inconclusive: 63.1 µM [inhibitor, partial curve, poor fit]

**Q.** For FC(F)(F)c1cc(-c2ccco2)nc(NCc2ccco2)n1, which Potency is on record?
**A.** inconclusive: 89.1 µM [inhibitor, partial curve, poor fit]

**Q.** CN(C)CCCNC(=O)/C(=C/c1ccc(-c2ccc([N+](=O)[O-])cc2)o1)NC(=O)c1ccccc1 was tested. Which Potency did it give?
**A.** inconclusive: 56.2 µM [inhibitor, partial curve, poor fit]

**Q.** With CCN(CC)CCn1c2ccccc2c2cnc(N)c(C#N)c21 as the molecule, how does the Potency read?
**A.** inconclusive: 12.6 µM [inhibitor, full curve]

**Q.** COc1ccc(NC(=O)CN2CCN(C3c4ccccc4-c4ccccc43)CC2)cc1 was tested. Which Potency did it give?
**A.** inconclusive: 79.4 µM [inhibitor, partial curve, poor fit]

**Q.** Cc1onc(-c2ccccc2)c1C(=O)n1nnc2ccccc21 was tested. Which Potency did it give?
**A.** inactive

**Q.** How did the Potency turn out when CC(C)Cn1c(-c2cccc(Br)c2)nc2ccccc21 was run?
**A.** inconclusive: 89.1 µM [inhibitor, partial curve, poor fit]

**Q.** COC(=O)C(CCSC)Nc1ncnc2onc(-c3ccc(F)cc3)c12 (stereo unspecified) was tested. Which Potency did it give?
**A.** inactive

**Q.** For Cc1ccc(S(=O)(=O)c2c(C)nn(C(C)(C)C)c2OC(=O)C(C)C)cc1, which Potency is on record?
**A.** inconclusive: 79.4 µM [inhibitor, partial curve, poor fit]

**Q.** How did the Potency turn out when CC(C)(C)NS(=O)(=O)c1ccc(NC(=O)C(Sc2ccccc2)c2ccccc2)cc1 (stereo unspecified) was run?
**A.** inconclusive: 56.2 µM [inhibitor, partial curve, poor fit]

**Q.** How did the Potency turn out when CN1/C(=C\C(=O)c2cncc(Br)c2)C(C)(C)c2ccccc21 was run?
**A.** inconclusive: 89.1 µM [inhibitor, partial curve, poor fit]

**Q.** COc1ccc2c(=O)c3c(=O)n(Cc4ccco4)c(-c4ccco4)nc3oc2c1 was tested. Which Potency did it give?
**A.** inconclusive: 56.2 µM [inhibitor, partial curve]

**Q.** How did the Potency turn out when Cc1ccc2ccccc2n1 was run?
**A.** inactive

**Q.** O=Nc1c(O)[nH]c2ccc(Cl)c(Cl)c12 was tested. Which Potency did it give?
**A.** inconclusive: 70.8 µM [inhibitor, partial curve, poor fit]

**Q.** Which Potency does the source give for CCN(CC)c1nc2cc(OC)ccc2cc1C#N here?
**A.** inconclusive: 39.8 µM [inhibitor, single point]

**Q.** For CCOc1ccc(/C=C/C(=O)c2ccc(-c3ccccc3)cc2)cc1, which Potency is on record?
**A.** inactive

**Q.** For COc1ccc(Nc2nc(C)cc(=O)[nH]2)cc1, which Potency is on record?
**A.** inactive

**Q.** Which Potency does the source give for COc1ccc(N(C)S(=O)(=O)c2c(C)[nH]c(=O)[nH]c2=O)c(OC)c1 here?
**A.** inactive

**Q.** With Cc1cccc(NC(=O)CNC(=O)c2cccc(-n3cccc3)c2)c1C as the molecule, how does the Potency read?
**A.** inconclusive: 79.4 µM [inhibitor, single point]
